Here are results for 87 compounds from PubChem BioAssay AID463173 (ICCB-Longwood Screening Facility, Harvard Medical School, 2010).

The campaign covered roughly 52,000 compounds. About 1,700 (3.3%) were called active. Cut-off read from the data, not from the text of the source: active = survival mostly below about 52% (no sharp cut-off); inactive = mostly above about 56%. The list shows a part of the results.

This experiment relates to Wild type. The experiment can be described thus: growth inhibition of S. aureus wild type versus tarO mutant, primary screen, teichoic acid synthesis inhibitors, RN4220, OD600 (AID 463173). The following applies: S. aureus RN4220 wild type/DeltatarO growth, OD600, 18 h, active compounds read low, screened at 18.75 µg/mL (by protocol).
Regarding `NC(=O)Cn1c(=O)n(CCCCCC(=O)NCc2ccc(F)cc2)c(=O)c2sccc21`, the survival is inactive: 82%.

Take `COc1ccc(OC)c(NC(=O)CSc2ncc3c(n2)-c2ccccc2N(C)S3(=O)=O)c1`: the survival was inactive: 75%.

For the compound `O=C(C1COc2ccccc2O1)N(Cc1cccnc1)c1nc2c(Cl)cccc2s1` (configuration not stated), the survival is inactive: 71%.

Turning to `CCOC(=O)/C(C#N)=C/c1ccc(-c2ccc(Br)cc2)o1`, the survival is inactive: 103%.

In the case of `Cc1ccccc1-c1noc(-c2cccnc2N2CCN(c3ccccc3)CC2)n1`, the survival was inactive: 120%.

On to `COc1cccc(C(=O)Nc2cccc(-c3cn4ccsc4n3)c2)c1OC`, for which the survival is inactive: 90%.

On to `CCCCS(=O)(=O)CC(O)CSc1nc(-c2ccc(C)cc2)cc(-c2ccccc2)c1C#N` (configuration not stated), for which the survival was inactive: 79%.

As for `CCc1cccc(NS(=O)(=O)c2ccc(-n3cccn3)cc2)c1`, the survival is inactive: 73%.

Regarding `CCN(CC)C(=O)Cn1c(=O)n(-c2ccc(C)c(C)c2)c(=O)c2c3c(sc21)CCCCC3`, the survival is inactive: 93%.

`CCOC(=O)c1ccc(NC(=O)CCn2c(=O)c3cccn3c3cccnc32)cc1`: the survival was inactive: 87%.

Regarding `O=C(Nc1ccc(F)cc1F)c1cc(-c2ccc(Cl)cc2)on1`, the survival was inactive: 90%.

For the compound `O=C(NCCCN1CCN(c2ccc(F)cc2)CC1)c1cnn(-c2ccc(F)cc2)c1-n1cccc1`, the survival was inactive: 82%.

As for `CCc1ccc(NC(=O)CSc2ccc(-c3ccccn3)nn2)cc1`, the survival is inactive: 121%.

For `COc1ccc(NC(=O)c2ccc3c(SCC(=O)O)c4c(nc3c2)CCCC4)c(OC)c1`, the survival is inactive: 78%.

In the case of `Cc1cccc(-c2nc3c4ccccc4n(Cc4cccc(Cl)c4)c(=O)n3n2)c1`, the survival is inactive: 113%.

Turning to `O=C(CN1C(=O)COc2ccc(S(=O)(=O)N3CCOCC3)cc21)N1CCN(c2cccc(Cl)c2)CC1`, the survival is inactive: 95%.

For the compound `COc1ccc(C(NC(C)=O)c2ccc(OC)cc2)cc1`, the survival is inactive: 108%.

As to `CC1CCN(CCC(=O)Nc2ccc(Br)cc2)CC1`, the survival is inactive: 118%.

Take `C#CCSc1nc(-c2ccccc2)cc(-c2ccccc2)c1C#N`: the survival was inactive: 70%.

As for `Cc1ccc(-n2c3c(cc(-c4nc(-c5ccc(Cl)cc5)cs4)c2=O)C(=O)CC(C)(C)C3)cc1C`, the survival is inactive: 79%.

Regarding `COc1ccc(NC(=O)C2CCCN(c3ncnc4c3nc3n4CCCCC3)C2)c(OC)c1` (configuration not stated), the survival is inactive: 90%.

`COc1cc(NS(=O)(=O)c2cc3c(cc2C)N(C)CCO3)cc(OC)c1OC`: the survival is inactive: 81%.

In the case of `Cc1cc(Br)ccc1NC(=O)Cn1cc(S(=O)(=O)N2CCN(c3ccccc3F)CC2)c2ccccc2c1=O`, the survival was inactive: 79%.

Consider `O=S(=O)(c1ccc(-c2cc(C(F)(F)F)on2)s1)N1CCN(c2ccc(F)cc2)CC1`, for which the survival was inactive: 123%.

As for `Cc1ccccc1C(=O)Nc1ccc(-c2nc3ccccc3o2)cc1`, the survival was inactive: 115%.

`Cc1ccc(C)c(N2CCN(C(=O)CCc3nnc4n(CC(C)C)c(=O)c5ccccc5n34)CC2)c1`: the survival is inactive: 81%.

`CC1=C(c2ccc(C(C)C)cc2)S(=O)(=O)NC1=NCCCN1CCN(c2ccccc2F)CC1`: the survival is inactive: 78%.

As to `Cc1ccc(CN2CCc3nc(Nc4ccc5c(c4)OCCO5)ncc3C2)cc1`, the survival is inactive: 82%.

In the case of `CCOc1ccc(CNC(=O)c2cnc3sc(N4CCOCC4)nn3c2=O)cc1`, the survival was inactive: 71%.

For the compound `CCS(=O)(=O)N1CCc2cc(C(=O)Nc3ccc(C(=O)OC)cc3)ccc21`, the survival is inactive: 92%.

`CCn1cc(C(=O)N2CCN(c3cccc(Cl)c3)CC2)c2cc(OC)c(OC)cc2c1=O`: the survival was inactive: 71%.

Take `Cc1ccc(NC(=O)Cn2c(=O)c3ccccc3n3nncc23)cc1`: the survival is inactive: 130%.

In the case of `Cc1cc(=O)oc2c3c(ccc12)OCC3=O`, the survival was inactive: 111%.

As for `CC(=O)c1ccc(Nc2nc3c(S(=O)(=O)c4ccccc4)nnn3c3ccc(Cl)cc23)cc1`, the survival is inactive: 84%.

`CCSc1oc(-c2ccco2)nc1S(=O)(=O)c1ccc(Br)cc1`: the survival was inactive: 65%.

In the case of `CCN1c2ccccc2-c2nc(SCC(=O)NCc3ccccc3)ncc2S1(=O)=O`, the survival is inactive: 74%.

Regarding `COC(=O)CCNC(=O)NC(CCC(C)C)c1c(-n2cccc2)sc2c1CCN(C)C2` (configuration not stated), the survival was inactive: 83%.

Consider `CCCN(CCC)C(=O)Cn1c(=O)n(-c2ccc(Cl)cc2)c(=O)c2c3c(sc21)CCCCC3`, for which the survival is inactive: 86%.

`Cc1ccc(-c2nn(-c3ccc(F)cc3)c3c2cnc2cc(F)c(F)cc23)cc1`: the survival is inactive: 76%.

In the case of `CCCc1cc(=O)[nH]c(SCC(=O)N2CCN(c3ccccc3OC)CC2)n1`, the survival is inactive: 102%.

As to `COc1cc(NC(=O)c2cc3c(s2)-c2ccccc2OC3)cc(OC)c1OC`, the survival is inactive: 53%.

As to `COc1ccccc1NC(=O)Cn1c(=O)n(CCC(=O)NCC2CCCO2)c(=O)c2cc(OC)c(OC)cc21` (configuration not stated), the survival is inactive: 127%.

In the case of `COc1ccccc1-c1cc2nc(C)c(CCC(=O)O)c(C)n2n1`, the survival was inactive: 72%.

In the case of `CCC(=O)N1CCc2cc(S(=O)(=O)NCCC(=O)Nc3cc(C)ccc3OC)ccc21`, the survival is inactive: 117%.

Regarding `Cc1ccc2nc(-c3ccc(O)cc3)c(Nc3ccc(Cl)cc3)n2c1`, the survival was inactive: 69%.

With `CC(=O)c1cccc(Nc2nc(-c3cccc(C)c3)nc3ccccc23)c1`, the survival was inactive: 31%.

For the compound `Cc1nn(-c2ccc(N3CCCCC3)nn2)c(C)c1CCC(=O)NCc1ccc(OC(C)C)cc1`, the survival was inactive: 84%.

As for `Cc1ccccc1C(=O)Nc1ccc(OCc2cc(=O)n3ccccc3n2)cc1`, the survival is inactive: 53%.

Consider `Cc1ccc(NC(=O)Cn2cc(S(=O)(=O)N3CCCC3)c(S(=O)(=O)N3CCCC3)c2)cc1F`, for which the survival was inactive: 126%.

As to `Cc1ccc(CCNC(=O)c2c[nH]c3ccc(S(=O)(=O)Nc4ccc(C)cc4C)cc3c2=O)cc1`, the survival was inactive: 126%.

For the compound `COc1cccc(CN(Cc2ccco2)C(c2ccc(OC)c(OC)c2)c2nnnn2Cc2ccccc2)c1` (configuration not stated), the survival was inactive: 115%.

For the compound `Cc1ccc(C)c(S(=O)(=O)c2nnn3c2nc(Nc2ccc(C)c(C)c2)c2ccccc23)c1`, the survival is inactive: 115%.

Turning to `N=C1CNc2ccccc2C(=O)O1`, the survival is inactive: 98%.

On to `COc1ccc(-c2nnn(CC(=O)N(CC3CCCO3)C(C(=O)NC3CCCCC3)c3cccs3)n2)cc1` (configuration not stated), for which the survival was inactive: 103%.

For the compound `COc1cccc(NC(=O)CCN2CCN(c3ccccc3)CC2)c1`, the survival was inactive: 70%.

For `COc1cccc(C(=O)NCC(c2ccc(N(C)C)cc2)N2CCc3ccccc32)c1` (configuration not stated), the survival is inactive: 148%.

Take `CCc1ccccc1NC(=O)Cn1nnc(-c2nc(-c3ccc(C)cc3)no2)c1N`: the survival was inactive: 63%.

Consider `Cc1ccc2c(c1)sc1nc(-c3cc4ccccc4oc3=O)cn12`, for which the survival is inactive: 76%.

Consider `CCOC(=O)c1ccccc1NC(=O)CN1C(=O)CC(c2ccco2)Sc2ccccc21` (configuration not stated), for which the survival is inactive: 79%.

In the case of `Cc1ccc(C(=O)Nc2ccc(C(=O)OCc3cc(=O)n4nc(C5CC5)sc4n3)cc2)cc1`, the survival is inactive: 84%.

With `Cc1oc(-c2ccc(Cl)cc2)nc1Cn1c(=O)cc(C)c2c(C)nn(-c3cccc(F)c3)c21`, the survival was inactive: 72%.

Regarding `COc1ccc(N2CCN(c3c4c(nc5nncn35)CCC4)CC2)cc1`, the survival is inactive: 82%.

Consider `CCn1cc(C(=O)N2CCN(c3ccc(F)cc3)CC2)c(=O)c2cc(S(=O)(=O)N3CCOCC3)ccc21`, for which the survival is inactive: 90%.

For the compound `COc1ccc(CCNC(=O)c2cc(Nc3cc(C)cc(C)c3)nc3ccccc23)cc1OC`, the survival was inactive: 131%.

For `CCc1ccccc1NC(=O)CSc1ncc(S(=O)(=O)c2ccccc2)c(N)n1`, the survival is inactive: 71%.

`CCOc1cc(CNC(=O)CCCn2c(=O)c3cccn3c3cccnc32)cc(OCC)c1OCC`: the survival was inactive: 78%.

With `CC(=O)Nc1cccc(NC(=O)CSc2cn(CC(=O)N(C(C)C)C(C)C)c3ccccc23)c1`, the survival was inactive: 94%.

Turning to `CCCN(CCC)S(=O)(=O)c1ccc(C)cc1`, the survival was inactive: 107%.

For `Cc1c(Cl)cccc1Nc1nn2c(=O)c3ccc(C(=O)NCCc4ccccc4)cc3nc2s1`, the survival was inactive: 120%.

Consider `CCN(c1cccc(C)c1)S(=O)(=O)c1ccc2c(c1)NC(=O)CCS2`, for which the survival is inactive: 71%.

Take `O=C(COCc1cc(-c2cccs2)on1)Nc1cccc(Cl)c1Cl`: the survival is inactive: 59%.

Regarding `CCOc1ccc(NC(=O)c2cc3c(n(-c4ccc(OC)cc4)c2=O)CC(C)(C)CC3=O)cc1`, the survival was inactive: 73%.

For `COc1ccccc1Cn1c(CNS(=O)(=O)c2ccccc2Cl)nc2cccnc21`, the survival was inactive: 63%.

In the case of `CC(=O)c1cccc(NC(=O)c2cccn2-c2nnc(N3CCCCC3)s2)c1`, the survival was inactive: 83%.

On to `CCCC(C)C(=O)Nc1nc2ccccc2s1` (configuration not stated), for which the survival was inactive: 120%.

For `O=C(COc1ccc(S(=O)(=O)NC2CCCCC2)cc1Cl)NCc1ccccn1`, the survival is inactive: 93%.

With `O=C(NC1CC(=O)N(c2ccccc2)C1)c1ccc(Br)o1` (configuration not stated), the survival was inactive: 76%.

Regarding `COc1ccc2cc(C#N)c(SCC(=O)N3c4ccccc4CC3C)nc2c1` (configuration not stated), the survival was inactive: 116%.

Turning to `O=C(NCCCN1CCN(c2cccc(Cl)c2)CC1)Nc1ccccc1C(F)(F)F`, the survival is inactive: 80%.

Take `COc1cccc(CNC(=O)C2CCN(c3nn4c(=O)cc(C)nc4s3)CC2)c1`: the survival was inactive: 84%.

Consider `Cc1cccc(N(CC(=O)NCCSCc2ccc(Cl)cc2)S(C)(=O)=O)c1C`, for which the survival was inactive: 56%.

As for `NC(=O)CCc1c[nH]c2ccccc12`, the survival was inactive: 104%.

With `CCOC(=O)Cn1c(=O)oc2cc(S(=O)(=O)N3CCN(c4ccccc4F)CC3)ccc21`, the survival was inactive: 84%.

For the compound `COc1ccc(NC(=O)c2nnn(Cc3nc(-c4cc(OC)c(OC)c(OC)c4)oc3C)c2C)cc1`, the survival is inactive: 72%.

Turning to `CCN(CC)C(=O)Cn1cc(SCC(=O)Nc2ccccc2F)c2ccccc21`, the survival is inactive: 112%.

As for `CCOC(=O)c1ccc2c(c1)N(CC(=O)Nc1ccc(C)cc1C)C(=O)c1ccccc1S2`, the survival is inactive: 121%.

As for `O=C(c1ccc2c(c1)N(Cc1ccc(Cl)cc1)C(=O)c1ccccc1S2=O)N1CCN(c2ccccc2F)CC1` (configuration not stated), the survival was inactive: 86%.
